In paper PMC9911399, “Two distinct binding modes provide the RNA-binding protein RbFox with extraordinary sequence specificity”:
Changes are numbered by the printed parent chain; changes in the protein carry UniProt numbers. The list shows a part of the results.

T1: RBFOX1 RRM RbFoxmut (Fox-RRM*) (Homo sapiens, UniProt Q9NWB1 109-208, R118D;E147R;N151S;E152T)
T1 sequence: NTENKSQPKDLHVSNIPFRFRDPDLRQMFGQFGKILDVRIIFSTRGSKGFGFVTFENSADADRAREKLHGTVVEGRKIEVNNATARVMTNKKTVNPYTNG

B1: GUACGCC (DNA:RNA)
RNA: GGGAGACCGGAAUUCAGAUUGUCCGUACGCCUUAAAUCCCGUCGUAGCCACCA
DNA 1: CAATCTGAATTCCGGTCTCCC
DNA 2: TGGTGGCTACGACGGGATT
B2: GUCAAUA (DNA:RNA)
RNA: B1 RNA with A27C, C28A, G29A, C30U, C31A
DNA 1: CAATCTGAATTCCGGTCTCCC
DNA 2: TGGTGGCTACGACGGGATT
B3: GCAGUCU (DNA:RNA)
RNA: B1 RNA with U26C, C28G, G29U, C31U
DNA 1: CAATCTGAATTCCGGTCTCCC
DNA 2: TGGTGGCTACGACGGGATT
B4: UAAGGAA (DNA:RNA)
RNA: B1 RNA with G25U, U26A, C28G, C30A, C31A
DNA 1: CAATCTGAATTCCGGTCTCCC
DNA 2: TGGTGGCTACGACGGGATT
B5: CGCACGG (DNA:RNA)
RNA: GGGAGACCGGAAUUCAGAUUGUCCCGCACGGUUAAAUCCCGUCGUAGCCACCA
DNA 1: CAATCTGAATTCCGGTCTCCC
DNA 2: TGGTGGCTACGACGGGATT
B6: UCGUCUC (DNA:RNA)
RNA: B5 RNA with C25U, G26C, C27G, A28U, G30U, G31C
DNA 1: CAATCTGAATTCCGGTCTCCC
DNA 2: TGGTGGCTACGACGGGATT
B7: GUCGCCA (DNA:RNA)
RNA: B1 RNA with A27C, C28G, G29C, C31A
DNA 1: CAATCTGAATTCCGGTCTCCC
DNA 2: TGGTGGCTACGACGGGATT
B8: GGCUCCA (DNA:RNA)
RNA: B5 RNA with C25G, A28U, G30C, G31A
DNA 1: CAATCTGAATTCCGGTCTCCC
DNA 2: TGGTGGCTACGACGGGATT
B9: GAUUGUA (DNA:RNA)
RNA: B1 RNA with U26A, A27U, C28U, C30U, C31A
DNA 1: CAATCTGAATTCCGGTCTCCC
DNA 2: TGGTGGCTACGACGGGATT
B10: GUGGCAA (DNA:RNA)
RNA: B1 RNA with A27G, C28G, G29C, C30A, C31A
DNA 1: CAATCTGAATTCCGGTCTCCC
DNA 2: TGGTGGCTACGACGGGATT
B11: AGUCUGU (DNA:RNA)
RNA: B5 RNA with C25A, C27U, A28C, C29U, G31U
DNA 1: CAATCTGAATTCCGGTCTCCC
DNA 2: TGGTGGCTACGACGGGATT
B12: AACUAUU (DNA:RNA)
RNA: B5 RNA with C25A, G26A, A28U, C29A, G30U, G31U
DNA 1: CAATCTGAATTCCGGTCTCCC
DNA 2: TGGTGGCTACGACGGGATT
B13: CUCUCCU (DNA:RNA)
RNA: B5 RNA with G26U, A28U, G30C, G31U
DNA 1: CAATCTGAATTCCGGTCTCCC
DNA 2: TGGTGGCTACGACGGGATT
B14: GACUUAC (DNA:RNA)
RNA: B1 RNA with U26A, A27C, C28U, G29U, C30A
DNA 1: CAATCTGAATTCCGGTCTCCC
DNA 2: TGGTGGCTACGACGGGATT
B15: UCUUUUU (DNA:RNA)
RNA: GGGAGACCGGAAUUCAGAUUGUCCUCUUUUUUUAAAUCCCGUCGUAGCCACCA
DNA 1: CAATCTGAATTCCGGTCTCCC
DNA 2: TGGTGGCTACGACGGGATT
B16: GCAUCGU (DNA:RNA)
RNA: B15 RNA with U25G, U27A, U29C, U30G
DNA 1: CAATCTGAATTCCGGTCTCCC
DNA 2: TGGTGGCTACGACGGGATT
B17: AACGAAU (DNA:RNA)
RNA: B5 RNA with C25A, G26A, A28G, C29A, G30A, G31U
DNA 1: CAATCTGAATTCCGGTCTCCC
DNA 2: TGGTGGCTACGACGGGATT
B18: ACUUGGA (DNA:RNA)
RNA: B15 RNA with U25A, U29G, U30G, U31A
DNA 1: CAATCTGAATTCCGGTCTCCC
DNA 2: TGGTGGCTACGACGGGATT
B19: CACAAGC (DNA:RNA)
RNA: B5 RNA with G26A, C29A, G31C
DNA 1: CAATCTGAATTCCGGTCTCCC
DNA 2: TGGTGGCTACGACGGGATT
B20: ACAAGGU (DNA:RNA)
RNA: B5 RNA with C25A, G26C, C27A, C29G, G31U
DNA 1: CAATCTGAATTCCGGTCTCCC
DNA 2: TGGTGGCTACGACGGGATT

Target: T1, RBFOX1 RRM RbFoxmut (Fox-RRM*)
Test: EMSA; HiTS-Eq, 1 nM pool, 10 min; buffer printed only for the single-RNA assays: 10 mM Tris pH 7.5, 150 mM NaCl, 3.4 mM EDTA, 0.001% NP-40, 30 C
Settings: tags: His6 N-terminal (pET28a); label: 5' 32P
Summary of the method: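 Purified wild-type or mutant RbFox RRM at increasing concentrations was equilibrated with 1 nM of 5′-radiolabelled RNA carrying 7 randomized nucleotides for 10 min in 50 µL. Unbound RNA was separated by 8% native PAGE and sequenced. Relative association constants came from read-count changes of each RNA species compared with the control reaction, normalised to the cognate motif.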

**Q.** B1 was tested. Which binding signal did it give?
**A.** Its binding signal is 0.115 KA relative to UGCAUGU.

**Q.** B2 was tested. Which binding signal did it give?
**A.** Its binding signal is 0.0736 KA relative to UGCAUGU.

**Q.** With B3 as the binder, how does the binding signal read?
**A.** The binding signal was 0.0528 KA relative to UGCAUGU.

**Q.** For B4, which binding signal is on record?
**A.** The binding signal was 0.0937 KA relative to UGCAUGU.

**Q.** For B5, which binding signal is on record?
**A.** The binding signal was 0.24 KA relative to UGCAUGU.

**Q.** B6 was tested. Which binding signal did it give?
**A.** Its binding signal is 0.0704 KA relative to UGCAUGU.

**Q.** How did the binding signal turn out when B7 was run?
**A.** The binding signal was 0.0874 KA relative to UGCAUGU.

**Q.** With B8 as the binder, how does the binding signal read?
**A.** Its binding signal is 0.118 KA relative to UGCAUGU.

**Q.** How did the binding signal turn out when B9 was run?
**A.** Its binding signal is 0.284 KA relative to UGCAUGU.

**Q.** With B10 as the binder, how does the binding signal read?
**A.** The binding signal was 0.0741 KA relative to UGCAUGU.

**Q.** Which binding signal does the source give for B11 here?
**A.** Its binding signal is 0.112 KA relative to UGCAUGU.

**Q.** How did the binding signal turn out when B12 was run?
**A.** The binding signal was 0.0973 KA relative to UGCAUGU.

**Q.** With B13 as the binder, how does the binding signal read?
**A.** The binding signal was 0.0602 KA relative to UGCAUGU.

**Q.** How did the binding signal turn out when B14 was run?
**A.** The binding signal was 0.0867 KA relative to UGCAUGU.

**Q.** How did the binding signal turn out when B15 was run?
**A.** Its binding signal is 0.0906 KA relative to UGCAUGU.

**Q.** Which binding signal does the source give for B16 here?
**A.** The binding signal was 0.578 KA relative to UGCAUGU.

**Q.** How did the binding signal turn out when B17 was run?
**A.** Its binding signal is 0.127 KA relative to UGCAUGU.

**Q.** For B18, which binding signal is on record?
**A.** Its binding signal is 0.0823 KA relative to UGCAUGU.

**Q.** B19 was tested. Which binding signal did it give?
**A.** Its binding signal is 0.0509 KA relative to UGCAUGU.

**Q.** Which binding signal does the source give for B20 here?
**A.** Its binding signal is 0.105 KA relative to UGCAUGU.
